From PubChem BioAssay AID1345082 (National Center for Advancing Translational Sciences (NCATS), 2018)
“And” between values parts separate entries of the source, which are not always exact repeats. Equal values may be shown once. The whole screen tested about 94,000 compounds, of which about 4,000 (4.3%) were called active. Inconclusive results, whose numbers are uncertain, are shown with a selection of clear calls. Calls follow the shape of the dose curve; as a rule, active = well fitted inhibition curve with a large enough effect; inconclusive = small, poorly fitted or top-dose-only effect; inactive = no such curve, though single readings can be large or run the other way. A potency beside an inconclusive call is a rough fit, not a confirmed value.

Experiment: Cytotoxic Profiling in NIH 3T3 Cell Line of Diverse Libraries Using Quantitative High-Throughput Screening; also: nearly all actives have a fitted effect of over 55% in size
Settings: NIH 3T3 viability, CellTiter-Glo ATP luminescence, 48-72 h; activity change, negative = cytotoxicity: at 96.7 µM (top of the series) unless noted; series mostly up to 96.7 µM
Procedure, shortened: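 Cytotoxicity is measured as loss of cellular ATP: NIH 3T3 cells (400/well) are exposed to compound for 48 or 72 hr at 37 °C, then CellTiter-Glo luminescence is imaged after 10 min at room temperature.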
% is scaled to controls: 0 for no effect and ±100 for the full control effect; potency is read from the fitted curve at half-maximal effect; tags tell the direction and shape of the fitted curve.

SMILES | Potency | activity change, negative = cytotoxicity | outcome
COc1ccccc1-c1ccc(C(=O)N2CCC(NC(=O)Cc3ccccn3)CC2)cc1 | inconclusive: 44.7 µM [inhibitor, partial curve, poor fit] and inconclusive: 56.2 µM [inhibitor, partial curve, poor fit] | – | –
O=c1c2nc(Nc3cccnc3)ccc2ncn1-c1ccc(F)cc1F | inconclusive: 89.1 µM [inhibitor, partial curve] | – | –
CCOc1ccccc1CN1C[C@@H]2C(=O)N(Cc3ccc4c(c3)OCO4)C(=O)[C@@H]2C1 | inconclusive: 50.1 µM [inhibitor, single point] | – | –
COc1ccc(O[C@H]2COCCN(S(=O)(=O)c3ccc(Cl)cc3)C2)cc1 | inconclusive: 56.2 µM [inhibitor, partial curve, poor fit] | – | –
Cc1ccc(-c2nnc(C3CN(C(=O)C4(c5ccccc5)CC4)CC34CCOCC4)o2)cc1 (stereo unspecified) | inconclusive: 50.1 µM [inhibitor, partial curve, poor fit] | – | –
O=C(CCc1ccccc1)N1CCC(c2nc(C3CCOCC3)no2)C1 (stereo unspecified) | – | inactive: -9.83% | –
CCOC(=O)C[C@@H]1C[C@@H](C(C)C)[C@H](CNC(=O)c2ccc(C#N)cc2)C=C1C | inconclusive: 50.1 µM [inhibitor, full curve, poor fit] | – | –
COc1ccc(OC(=O)N2CCC(Oc3ccc4c(cnn4CCC(=O)O)c3)CC2)cc1 | inconclusive: 56.2 µM [inhibitor, partial curve, poor fit] | – | –
Cc1noc(C)c1-c1cc2c(cc(C)n2C)c(-c2cnn(C)c2)n1 | active: 39.8 µM | – | –
COCC(=O)N1CCC(N2C(=O)C3(CCCCC3)C2c2ccccc2)CC1 (stereo unspecified) | inconclusive: 70.8 µM [inhibitor, partial curve, poor fit] | – | –
Cn1cnc2cc(-c3ccc(F)cc3)cc(C(=O)NCCc3cnc[nH]3)c21 | inconclusive: 89.1 µM [inhibitor, partial curve, poor fit] | – | –
COc1ccc(F)cc1-c1cccc(C(=O)NCC(=O)NCCCc2ccccc2)c1 | inconclusive: 50.1 µM [inhibitor, partial curve, poor fit] | – | –
COc1ccc2c(c1)CCN=C2C[C@H]1CN(C(=O)N2CCOCC2)CC[C@H]1CC(=O)O | – | – | inactive [at 174 µM]
OCC1(Cc2ccc(Cl)cc2)CCNCC1 | – | inactive: -20.8% | –
O=C(NCC1CCCCC1)c1nc2sccn2c1-c1ccc(C(F)(F)F)cc1 | inconclusive: 28.2 µM [inhibitor, full curve, poor fit] | – | –
O=C1CCN(Cc2cccnc2)CCCC(C(=O)Nc2ccccc2)CCN1 (stereo unspecified) | – | inactive: -10.9% | –
Cn1cnc2cc(-c3cccc(N4CCOCC4)c3)cc(C(=O)NCc3cccnc3)c21 | inconclusive: 89.1 µM [inhibitor, partial curve, poor fit] | – | –
Cc1oc2ccn(Cc3cccc(F)c3)c(=O)c2c1C(=O)NCc1cccnc1 | inconclusive: 44.7 µM [inhibitor, partial curve, poor fit] | – | –
CC(=O)N1CCC(C(=O)N2CCCN(S(=O)(=O)c3ccccc3)CCC(=O)NCC2)CC1 | – | inactive: 1.08% | –
N#Cc1cccnc1-c1cccc(C(=O)NCCNC(=O)c2ccccc2F)c1 | – | inactive: -16.2% | –
CC(C)CCNC(=O)c1cnc2n1CCN(CCCc1ccccc1)CC2 | inconclusive: 89.1 µM [inhibitor, single point] | – | –
O=C(NC1CCN(Cc2cccc(-c3cccs3)c2)CC1)c1ccc(Cl)nc1 | inconclusive: 50.1 µM [inhibitor, partial curve, poor fit] | – | –

SMILES | Potency | activity change, negative = cytotoxicity | outcome
Cc1ccc(F)cc1CNC(=O)CCc1nnc(CCc2c[nH]c3ccccc23)o1 | inconclusive: 35.5 µM [inhibitor, partial curve, poor fit] | – | –
COC1CN(c2ccc(C)cc2)C12CCN(C(=O)Cc1ccccc1)CC2 (stereo unspecified) | inconclusive: 44.7 µM [inhibitor, partial curve, poor fit] | – | –
O=C1CCN(CC(O)C(F)(F)F)c2ccccc2CN1Cc1ccccc1 (stereo unspecified) | inconclusive: 35.5 µM [inhibitor, partial curve, poor fit] | – | –
Cc1nn2c(c1-c1ccccc1Oc1ccccc1)N(C(=O)c1ccccc1)CCC2 | active: 44.7 µM | – | –
Cc1nn(-c2ccc(C(C)C)cc2)c(C)c1[C@@H]1C=C[C@@H](NC(=S)NCC(C)C)C1 | active: 22.4 µM | – | –
COc1cccc(S(=O)(=O)N2CC(N(C3CCOCC3)S(C)(=O)=O)C2)c1 | – | – | inactive
COC(=O)C1=C(C)N=C2SC=C(CC(=O)NCC3CCCO3)N2C1c1ccccc1OC (stereo unspecified) | inconclusive: 50.1 µM [inhibitor, single point] | – | –
COc1ccc(CCN2CC(NC(=O)Cn3ccc(C)n3)CC2=O)cc1 (stereo unspecified) | – | inactive: -1.62% | –
Cc1nc2n(c1C(=O)Nc1cc(-c3ccc(F)cc3)[nH]n1)CCC(Nc1ccc(F)cc1)C2 (stereo unspecified) | active: 31.6 µM | – | –
COc1cccc(C(=O)N2CCC(c3n[nH]c(=O)n3-c3ccccc3)CC2)c1 | inconclusive: 70.8 µM [inhibitor, single point] | – | –
Cn1nc(C(=O)NCc2cccnc2)c2c1CN(C(=O)c1ccc3ccccc3n1)C2 | – | inactive: -13.2% | –
CCc1nc(CN2CCOc3c(O)cc(-c4nc(C)cnc4C)cc3C2)no1 | – | – | inactive
COc1ccc(C(=O)N2CCC(C(=O)N3CCC(c4nc5ncccc5[nH]4)C3)CC2)cc1 (stereo unspecified) | – | inactive: -17.4% | –
CC1(c2ccccc2)N(Cc2cccnc2)C(=O)OC12CCN(C(=O)Cc1ccc3c(c1)OCO3)CC2 (stereo unspecified) | inconclusive: 7.08 µM [inhibitor, full curve, poor fit] | – | –
O=C(NCCC1CCN(C(=O)Nc2cc(F)cc(F)c2)CC1)c1ccc2nc[nH]c2c1 | – | inactive: -4.14% | –
N#Cc1ccc(CN2CCC3(CC(c4cccc(C(F)(F)F)c4)=NO3)C2)cc1 (stereo unspecified) | inconclusive: 39.8 µM [inhibitor, partial curve] | – | –
NCC(=O)N1CCc2nc(-c3ccco3)nc(N3CC=CCC3)c2CC1 | – | inactive: -4.93% | –
CN(C)C(=O)C1CN(C(=O)C2CCCC2)CC12CCOCC2 (stereo unspecified) | – | – | inactive
Cc1ccc(NC(=O)Cn2c(N3CCOCC3)nc(C)cc2=O)c(Cl)c1 | – | inactive: -8.33% | –
O=C(CC1CCCCC1)NC1CCN(c2cnn(CC3CC3)c(=O)c2)CC1 | inconclusive: 50.1 µM [inhibitor, single point] | – | –
CN(Cc1ccccc1CN1CCCC1)c1nccc(-c2ccccn2)n1 | inconclusive: 50.1 µM [inhibitor, partial curve, poor fit] | – | –
CC(=O)Nc1ccc(C(=O)N2CCC3(CC2)N=C(c2cccc(Br)c2)NO3)cc1 | inconclusive: 44.7 µM [inhibitor, partial curve, poor fit] | – | –

SMILES | Potency | activity change, negative = cytotoxicity | outcome
O=C(CC1CCCCC1)N1CCC2(CC1)CC(O)CCO2 (stereo unspecified) | – | inactive: -7.29% | –
Cc1ccc(CN2CC[C@@H]3[C@H]2C(=O)NC[C@H](CCC(=O)NCc2ccco2)N3C)cc1 | inconclusive: 126 µM [inhibitor, single point] | – | –
CN(C)C1(CC2CC2)CCN(Cc2cccc(F)c2)CC1 | – | inactive: -29.2% | –
O=C(Nc1ccccc1F)N1CCC(F)(C(=O)NC2CC2)CC1 | – | inactive: -5.87% | –
COc1ccc(CCC(=O)N2CCCC(Cn3c(C)cnc3-c3ccncc3)C2)cc1 (stereo unspecified) | – | inactive: -21.1% | –
COc1ccc(NC(=O)N2CC(Oc3cccc(-c4nc(C)no4)c3)C2)cc1 | inconclusive: 44.7 µM [inhibitor, partial curve] | – | –
COc1ccc(-c2n[nH]c3c2CC(=O)N(Cc2ccccn2)C3)cn1 | inconclusive: 89.1 µM [inhibitor, partial curve] | – | –
O=C(C1CC1)N1CCCN(c2nc3ncccc3o2)CC1 | – | inactive: -10.1% [at 138 µM] | –
O=C(c1cccc(Cl)c1)N1CCN(c2nccc(Nc3ccccc3Cl)n2)CC1 | inconclusive: 50.1 µM [inhibitor, partial curve, poor fit] | – | –
COC(=O)[C@@H]1Cc2ncn(Cc3ccc(OC)cc3)c2CN1C(=O)CC(C)(C)C | – | inactive: -22.6% [at 174 µM] | –
Clc1ccc(-c2nnc([C@H]3CCN(Cc4c[nH]c5ccccc45)C3)o2)cc1 | active: 112 µM | – | –
CCN(CCN(C)C)C(=O)c1cn(CC2COc3ccccc3O2)nn1 (stereo unspecified) | – | inactive: -3.76% | –
CNC(=O)c1cnc2c(c1)N(C(=O)Cc1cccc(C(F)(F)F)c1)CCC2 | inconclusive: 25.1 µM [inhibitor, full curve] | – | –
COCCc1nncn1C1CCN(S(=O)(=O)c2ccc(Br)cc2)CC1 | inconclusive: 70.8 µM [inhibitor, single point] | – | –
O=C(NCc1ccccc1)c1cnc2n1CCN(Cc1cccs1)CC2 | active: 31.6 µM | – | –
COc1ccc(CC(=O)NCc2cccc(SC)c2)cc1 | inconclusive: 56.2 µM [inhibitor, partial curve, poor fit] | – | –
O=C(NCc1ccccc1)N1CCCC(c2noc(COc3ccccc3)n2)C1 (stereo unspecified) | inconclusive: 70.8 µM [inhibitor, single point] | – | –
NC(=O)Cn1ccc2cc(OCC3CCN(C(=O)CCc4ccccc4)CC3)cnc21 | inconclusive: 56.2 µM [inhibitor, partial curve, poor fit] | – | –
COc1ccc(C(=O)N2CCCC2C(=O)N2CCC(c3nc4ccncc4[nH]3)CC2)cc1 (stereo unspecified) | – | inactive: -10.4% | –
Cc1cccc(Nc2nc(N)nc(CN3CC[C@@](O)(C4CCC4)[C@H](C)C3)n2)c1 | inconclusive: 50.1 µM [inhibitor, partial curve, poor fit] | – | –
C[C@@]1(NC(=O)Cc2ccccc2)OC[C@H]2CC[C@@H](C(=O)NC(c3ccccc3)c3ccccc3)N2C1=O | inconclusive: 70.8 µM [inhibitor, single point] | – | –
COc1ccc(S(=O)(=O)Nc2ccc3n(c2=O)C[C@H]2C[C@@H]3CN(C(=O)Nc3cc(OC)cc(OC)c3)C2)cc1 | active: 50.1 µM | – | –
